At least one peptide structure holds a part that was inferred or is arguable (an end, a ring closure or a residue). Where no end group is shown, it is not given here.
Key:
[1] = test system: rats inoculated intracisternally with Haemophilus influenzae type b lipooligosaccharide; assay: Rat meningitis model (H. influenzae LOS); type: in vivo
Method: The experiments were performed according to established protocols (Wispelway et al., 1988, J. Clin. Invest., 82: 1339-1346). Purified Haemophilus influenzae type b strain DL42 lipooligosaccharide (LOS) was prepared for inoculation by sonication for 30 minutes, dilution to the desired concentration (20 ng/50 μl) in normal saline or PBS, and sonication for an additional 15 to 30 minutes just prior to use.
Briefly, anesthetized female Wistar rats were placed under a micromanipulator and inoculated intracisternally with a 25 gauge needle. After removal of 50 μl of CSF (without visible blood contamination), rats were inoculated intracisternally with 50 μl (20 ng) of LOS using a 1 ml syringe with a 25 gauge needle. Ten to fifteen minutes after inoculation with LOS, the rats were treated by intravenous administration of the test substance: a solution of an FHA peptide in PBS, a solution of a control peptide in PBS, or an equal volume of PBS alone.
Three hours after LOS inoculation, 5 μCi of ^125 I-radiolabelled albumin in 50 μl normal saline was administered intravenously. One hour later, CSF was collected via intracisternal puncture and blood samples were collected via intracardiac puncture. CSF leukocytosis was determined by manually counting white blood cells using a hemacytometer, and blood-brain barrier permeability was determined as the percent of radioactivity in whole blood that was present in the CSF. Blood samples were obtained immediately prior to inoculation, immediately prior to treatment, and at 4 hours post-inoculation for determination of peripheral white blood cell concentrations.

[2] = test system: Recognition of C3bi by 12.1F9; assay: Peptide inhibition of recognition of C3bi by 12.1F9; type: binding; settings: peptides 50 μg/ml; normalized to a control value of 100

IDVPQHGGAMRDLGIAQGKD [scrambled FHA Ca, reference compound]
BBB permeability ([1]; Experiment #2, 100 nmol): 6.74 ± 3.48%
Leukocytosis ([1]; Experiment #2, 100 nmol i.v., CSF 4 hours after LOS): 20,700 ± 7,400 cells/ml

TRYRGDQDATMS [C3/12, reference compound]
Adherence index [2]: 127 ± 27

VTVGRGDPHQG [FHA RGD]
Adherence index [2]: 85 ± 9

YTVSADAIALA [FHA 1408-1418]
Adherence index [2]: 21 ± 11
